Experimental data reported in the supplement of paper PMC10126150.
Sequences with one replicate were seen in a single cluster, so their values are uncertain.

Test system: ATP
Assay: switch fluorescence ratio, 500 uM ATP over buffer (Cy3 cluster intensity, sum of 5 cycles each) (fold (ratio)); higher = stronger signal-on switching upon ATP binding; sequences stand for … in TCGTCGGCAGCGTCAGATGTGTATAAGAGACAGTTTTTTTTTTTTTTTTTTTTTTTTT…TC
Conditions: aptamer strand: ATP DNA aptamer (quencher-CACCTGGGGGAGTATTGCGGAGGAAGG + anchor), 100 nM annealed; ATP concentration: 500 uM; one replicate
Procedure, shortened: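 Values give the fluorescence ratio for each switch-domain sequence, averaged from per-cluster ratios of summed target-cycle to summed buffer-cycle Cy3 intensity. The Cy3-labelled switching-strand clusters sat on a modified Illumina MiSeq flow-cell, were annealed to 100 nM quencher-labelled ATP aptamer, and were imaged in selection buffer, then after 15 min with 500 uM ATP at 22 °C. Five cycles ran with NaOH stripping and re-annealing between them, and clusters outside 100-1000 RFU were excluded.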
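Also: ATP exposure 15 min at 22 °C before imaging.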

Sequence	switch fluorescence ratio
CATTATGAA	1
TAGGTGAT	1
CACGAGTTTC	0.975
TTGCCGATCG	1.04
GATAGTATCA	1.07
AGTGATCTAT	0.976
GATTACAGGA	1.09
TTAGTGGACA	1.03
AATGCGGTAG	0.972
CGTACTAGTT	0.968
AGGAATTGT	0.998
CCCGGATTTA	0.979
GGGCTTAGGT	1.01
TAAAAAATGC	1.06
AGGTATGGTG	1.06
ACCTCGGCTA	2.37
CGTTTAGACT	1.01
ATAGACAGGG	0.994
TTTTACACAG	0.963
ACGTTTCGGT	0.979
TTCGCTGACC	1.32
GGGCAATCGA	1.37

Sequence	switch fluorescence ratio
ACGCGAATGG	1.13
CGGAGATAGA	1
TAGTTACATA	1
AGCACCAA	0.991
GACCGACAGA	1.06
TTAAATGAAG	0.95
GTTGTCATTC	0.974
TCTGAGGTGG	0.98
GTGAGTGCGC	0.972
GGTGTCATTT	1.06
TAGGAGACCG	1.05
CTTCATGCAA	5.26
CCCTACAACT	1.06
GGACCAATGC	3.72
GGCCTAGCCA	0.995
GCGTTTGCCT	0.986
CCAAATGCGT	1
TCATTCGGCA	1.1
AGACAAGTT	1.01
ATCGTGGCCT	0.96
CGCGTCGAAA	0.971
AAGATTGGCA	0.966

Sequence	switch fluorescence ratio
CTTGTCGGGC	1.02
CGTCAATGCT	1.25
ATAGTGTTTA	1.02
CGGAAGGCGC	0.97
TGATTTCGTT	0.99
AACAAGTGGT	1
TATATTTGCA	0.985
TCCACGCACG	1.77
TGGGGTTAA	0.926
TCTTGGGCGA	0.999
TGTAATACCT	1.03
ACCCTGCTCT	1.01
ATCATACCCG	1.02
GCTGTTGGT	1.01
ATAATCCCCT	1.17
GGAAACCCGA	1.13
TCAATGAGTT	0.992
GTGTTAAGAT	1
CCGTATGTGA	1.19
GACAGGTAGT	1.07
CCACGGTAGT	1.02
TTTGGCAACT	1.05

Sequence	switch fluorescence ratio
TGTATGGTGT	0.992
CGAAGTGACC	1.13
AGTGCTTACT	1
GGCATCCCAA	1.03
TTGATAGCAC	1.14
ACACGTAACG	1.19
CGGTATTAGT	0.982
CGTGAACGAC	0.984
CTGCGGTCCA	1.03
GACTGAGACT	1.01
TTTTGTT	0.986
CGGTAGGGA	0.964
GATTTCGGGC	1.01
ATATTTTTTC	1.01
TGAAATACGG	1.1
GTTTACTCGC	1.05
CTTTCCCCT	1.02
GCGGAACGAG	1.07
TTTAGAGCGG	0.995
